Assay results: the supplement of paper PMC8728848
The other results are listed elsewhere or left out.

Columns and labels:
Assay in all cases: glycan array binding signal (z-score within array); higher = stronger binding
Conditions in all cases: glycan notation: IUPAC condensed, linker removed; mutation: R120K
[1] = target: Neu5Ac(a2-3)Gal(b1-3)GlcNAc(b1-6)GalNAc
Procedure, shortened: (§1)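 The Consortium for Functional Glycomics database supplied 3228 glycan arrays, of which those lacking an available protein sequence were dropped. The binding signal, a within-array Z-score, was averaged across arrays of the same protein sequence and across linkers. Negative scores can be read as non-binding.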

[2] = target: Neu5Ac(a2-3)Gal(b1-3)GlcNAc6S
Procedure, shortened: as §1

[3] = target: Neu5Ac(a2-3)Gal(b1-3)[Fuc(a1-4)]GlcNAc
Procedure, shortened: as §1

[4] = target: Neu5Ac(a2-3)Gal(b1-3)[Fuc(a1-4)]GlcNAc(b1-3)Gal(b1-3)[Fuc(a1-4)]GlcNAc
Procedure, shortened: as §1

[5] = target: Neu5Ac(a2-3)Gal(b1-3)[Fuc(a1-4)]GlcNAc(b1-3)Gal(b1-4)[Fuc(a1-3)]GlcNAc
Procedure, shortened: as §1

[6] = target: Neu5Ac(a2-3)Gal(b1-3)[GlcNAc(b1-6)]GalNAc
Procedure, shortened: as §1

[7] = target: Neu5Ac(a2-3)Gal(b1-3)[Neu5Ac(a2-6)]GalNAc
Procedure, shortened: as §1

[8] = target: Neu5Ac(a2-3)Gal(b1-3)[Neu5Ac(a2-6)]GlcNAc(b1-3)[Fuc(a1-3)[Gal(b1-4)]GlcNAc(b1-6)]Gal(b1-4)Glc
Procedure, shortened: as §1

[9] = target: Neu5Ac(a2-3)Gal(b1-3)]Neu5Ac(a2-3)Gal(b1-4)]GlcNAc
Procedure, shortened: as §1

[10] = target: Neu5Ac(a2-3)Gal(b1-4)Glc
Procedure, shortened: as §1

[11] = target: Neu5Ac(a2-3)Gal(b1-4)GlcNAc
Procedure, shortened: as §1

[12] = target: Neu5Ac(a2-3)Gal(b1-4)GlcNAc(b1-2)Man
Procedure, shortened: as §1

[13] = target: Neu5Ac(a2-3)Gal(b1-4)GlcNAc(b1-2)Man(a1-3)[GlcNAc(b1-4)][Neu5Ac(a2-3)Gal(b1-4)GlcNAc(b1-2)Man(a1-6)]Man(b1-4)GlcNAc(b1-4)GlcNAc
Procedure, shortened: as §1

[14] = target: Neu5Ac(a2-3)Gal(b1-4)GlcNAc(b1-2)Man(a1-3)[Neu5Ac(a2-3)Gal(b1-4)GlcNAc(b1-2)Man(a1-6)]Man(b1-4)GlcNAc(b1-4)GlcNAc
Procedure, shortened: as §1

[15] = target: Neu5Ac(a2-3)Gal(b1-4)GlcNAc(b1-2)Man(a1-3)[Neu5Ac(a2-3)Gal(b1-4)GlcNAc(b1-2)Man(a1-6)]Man(b1-4)GlcNAc(b1-4)[Fuc(a1-6)]GlcNAc
Procedure, shortened: as §1

[16] = target: Neu5Ac(a2-3)Gal(b1-4)GlcNAc(b1-2)Man(a1-3)[Neu5Ac(a2-6)Gal(b1-4)GlcNAc(b1-2)Man(a1-6)]Man(b1-4)GlcNAc(b1-4)GlcNAc
Procedure, shortened: as §1

[17] = target: Neu5Ac(a2-3)Gal(b1-4)GlcNAc(b1-2)[Neu5Ac(a2-3)Gal(b1-4)GlcNAc(b1-4)]Man(a1-3)[GlcNAc(b1-4)][Neu5Ac(a2-3)Gal(b1-4)GlcNAc(b1-2)[Neu5Ac(a2-3)Gal(b1-4)GlcNAc(b1-6)]Man(a1-6)]Man(b1-4)GlcNAc(b1-4)GlcNAc
Procedure, shortened: as §1

[18] = target: Neu5Ac(a2-3)Gal(b1-4)GlcNAc(b1-2)[Neu5Ac(a2-3)Gal(b1-4)GlcNAc(b1-4)]Man(a1-3)[GlcNAc(b1-4)][Neu5Ac(a2-3)Gal(b1-4)GlcNAc(b1-4)Man(a1-6)]Man(b1-4)GlcNAc(b1-4)GlcNAc
Procedure, shortened: as §1

[19] = target: Neu5Ac(a2-3)Gal(b1-4)GlcNAc(b1-2)[Neu5Ac(a2-3)Gal(b1-4)GlcNAc(b1-6)]Man(a1-6)[Neu5Ac(a2-3)Gal(b1-4)GlcNAc(b1-2)Man(a1-3)][GlcNAc(b1-4)]Man(b1-4)GlcNAc(b1-4)GlcNAc
Procedure, shortened: as §1

[20] = target: Neu5Ac(a2-3)Gal(b1-4)GlcNAc(b1-3)Gal
Procedure, shortened: as §1

[21] = target: Neu5Ac(a2-3)Gal(b1-4)GlcNAc(b1-3)Gal(b1-3)GlcNAc
Procedure, shortened: as §1

[22] = target: Neu5Ac(a2-3)Gal(b1-4)GlcNAc(b1-3)Gal(b1-4)GlcNAc
Procedure, shortened: as §1

[23] = target: Neu5Ac(a2-3)Gal(b1-4)GlcNAc(b1-3)Gal(b1-4)GlcNAc(b1-2)Man(a1-3)[Neu5Ac(a2-3)Gal(b1-4)GlcNAc(b1-3)Gal(b1-4)GlcNAc(b1-2)Man(a1-6)]Man(b1-4)GlcNAc(b1-4)GlcNAc
Procedure, shortened: as §1

[24] = target: Neu5Ac(a2-3)Gal(b1-4)GlcNAc(b1-3)Gal(b1-4)GlcNAc(b1-3)Gal(b1-4)GlcNAc
Procedure, shortened: as §1

[25] = target: Neu5Ac(a2-3)Gal(b1-4)GlcNAc(b1-3)Gal(b1-4)GlcNAc(b1-3)Gal(b1-4)GlcNAc(b1-2)Man(a1-3)[Neu5Ac(a2-3)Gal(b1-4)GlcNAc(b1-3)Gal(b1-4)GlcNAc(b1-3)Gal(b1-4)GlcNAc(b1-2)Man(a1-6)]GalNAc
Procedure, shortened: as §1

[26] = target: Neu5Ac(a2-3)Gal(b1-4)GlcNAc(b1-3)Gal(b1-4)GlcNAc(b1-3)GalNAc
Procedure, shortened: as §1

[27] = target: Neu5Ac(a2-3)Gal(b1-4)GlcNAc(b1-3)Gal(b1-4)GlcNAc(b1-3)[Neu5Ac(a2-3)Gal(b1-4)GlcNAc(b1-3)Gal(b1-4)GlcNAc(b1-6)]GalNAc
Procedure, shortened: as §1

[28] = target: Neu5Ac(a2-3)Gal(b1-4)GlcNAc(b1-3)Gal(b1-4)GlcNAc(b1-6)[Gal(b1-3)]GalNAc
Procedure, shortened: as §1

[29] = target: Neu5Ac(a2-3)Gal(b1-4)GlcNAc(b1-3)Gal(b1-4)[Fuc(a1-3)]GlcNAc
Procedure, shortened: as §1

[30] = target: Neu5Ac(a2-3)Gal(b1-4)GlcNAc(b1-3)GalNAc
Procedure, shortened: as §1

B1: Siglec-9 (Homo sapiens), Q9Y336 (protein)
chain: MLLLLLPLLWGRERAEGQTSKLLTMQSSVTVQEGLCVHVPCSFSYPSHGWIYPGPVVHGYWFREGANTDQDAPVATNNPARAVWEETRDRFHLLGDPHTKNCTLSIRDARRSDAGRYFFKMEKGSIKWNYKHHRLSVNVTALTHRPNILIPGTLESGCPQNLTCSVPWACEQGTPPMISWIGTSVSPLDPSTTRSSVLTLIPQPQDHGTSLTCQVTFPGASVTTNKTVHLNVSYPPQNLTMTVFQGDGTVSTVLGNGSSLSLPEGQSLRLVCAVDAVDSNPPARLSLSWRGLTLCPSQPSNPGVLELPWVHLRDAAEFTCRAQNPLGSQQVYLNVSLQSKATSGVTQGVVGGAGATALVFLSFCVIFVVVRSCRKKSARPAAGVGDTGIEDANAVRGSASQGPLTEPWAEDSPPDQPPPASARSSVGEGELQYASLSFQMVKPWDSRGQEATDTEYSEIKIHR
glycan array binding signal (z-score) [1]: 0.486
glycan array binding signal (z-score) [2]: 0.096
glycan array binding signal (z-score) [3]: -0.157
glycan array binding signal (z-score) [4]: -0.114
glycan array binding signal (z-score) [5]: -0.008
glycan array binding signal (z-score) [6]: -0.241
glycan array binding signal (z-score) [7]: -0.344
glycan array binding signal (z-score) [8]: -0.514
glycan array binding signal (z-score) [9]: -0.118
glycan array binding signal (z-score) [10]: 4.42
glycan array binding signal (z-score) [11]: -0.401
glycan array binding signal (z-score) [12]: 0.712
glycan array binding signal (z-score) [13]: -0.284
glycan array binding signal (z-score) [14]: -0.478
glycan array binding signal (z-score) [15]: -0.324
glycan array binding signal (z-score) [16]: -0.553
glycan array binding signal (z-score) [17]: -0.287
glycan array binding signal (z-score) [18]: -0.131
glycan array binding signal (z-score) [19]: -0.407
glycan array binding signal (z-score) [20]: -0.264
glycan array binding signal (z-score) [21]: -0.412
glycan array binding signal (z-score) [22]: -0.414
glycan array binding signal (z-score) [23]: 0.07
glycan array binding signal (z-score) [24]: 0.054
glycan array binding signal (z-score) [25]: 0.289
glycan array binding signal (z-score) [26]: 0.037
glycan array binding signal (z-score) [27]: -0.292
glycan array binding signal (z-score) [28]: 0.106
glycan array binding signal (z-score) [29]: -0.009
glycan array binding signal (z-score) [30]: -0.376
